Over roughly 33,000 sequences, “E-score (-0.5 to 0.5)” has its median near -0.032; the highest 2% begin near 0.36. The list shows a part of the results.
Molecular target: T1, Sko1 (UniProt Q02100)
T1 sequence: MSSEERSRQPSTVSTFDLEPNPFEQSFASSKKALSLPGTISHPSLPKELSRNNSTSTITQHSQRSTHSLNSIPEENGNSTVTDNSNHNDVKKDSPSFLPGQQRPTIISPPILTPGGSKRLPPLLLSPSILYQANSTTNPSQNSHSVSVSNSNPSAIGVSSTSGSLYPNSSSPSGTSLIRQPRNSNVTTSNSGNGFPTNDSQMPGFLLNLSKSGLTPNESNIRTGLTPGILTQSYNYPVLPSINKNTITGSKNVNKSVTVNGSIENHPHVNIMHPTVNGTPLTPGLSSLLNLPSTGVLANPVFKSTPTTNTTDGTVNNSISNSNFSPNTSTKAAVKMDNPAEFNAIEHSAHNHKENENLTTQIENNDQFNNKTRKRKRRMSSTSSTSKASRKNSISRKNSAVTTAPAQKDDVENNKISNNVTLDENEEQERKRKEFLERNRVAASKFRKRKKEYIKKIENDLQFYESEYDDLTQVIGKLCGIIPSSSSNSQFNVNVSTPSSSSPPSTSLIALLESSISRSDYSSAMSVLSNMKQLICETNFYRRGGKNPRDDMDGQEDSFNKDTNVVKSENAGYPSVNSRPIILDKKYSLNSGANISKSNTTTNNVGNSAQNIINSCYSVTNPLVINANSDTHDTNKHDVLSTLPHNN
Test: PBM E-score (8-mer binding enrichment) (E-score (-0.5 to 0.5)); higher = stronger / more preferred TF binding; most listed sequences are background and not binding sites
Conditions: protein concentration: 200 nM; construct: GST-full length
Experimental: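 Universal 'all 10-mer' protein binding microarrays (Agilent AMADID 015681) probed with GST-tagged S. cerevisiae TFs (full-length or DBD) made by in vitro transcription/translation (PURExpress), about 100-200 nM. Bound TF was detected with fluorescent anti-GST. Each ungapped 8-mer (which stands for itself and its reverse complement) is scored by the PBM enrichment score (E-score), a modified Wilcoxon-Mann-Whitney statistic from -0.5 to +0.5, computed with the Universal PBM Analysis Suite. Scale: above 0.35 generally sequence-specific binding.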

Sequence | PBM E-score
GGGATACC | -0.283
ATAGTGTA | 0.0563
CACAAGAA | 0.129
AGGATGGG | -0.164
AGTTTTCA | -0.0442
AAGCTTCT | -0.0252
AAGCAAAC | 0.135
AGTAACCG | 0.0181
CGTTGGAA | 0.115
AACATTGC | -0.044
CCTCCCCA | -0.178
AACTCAGC | -0.207
CGTAGGGA | 0.266
CAATGAAA | 0.0377
ACCATTCC | -0.182
ACGGACAG | -0.0519
AAAGAACG | 0.143
CTTTGTAA | 0.241
AGCAAGGG | -0.159
GAGCCGGA | -0.308
AACGTACC | 0.223
CGCACATC | 0.133

Sequence | PBM E-score
CTCTCGTC | 0.0626
AAGGAACA | 0.0249
AATGGCCG | -0.0508
ATATCGTG | 0.132
GAAGTGCC | -0.102
GGGATTAC | 0.196
ATTCGGCC | -0.263
GTCATCCA | 0.33
TATGCATA | 0.117
ACTTTCCA | 0.108
CATTTAGA | 0.0163
CTCAGAGA | -0.223
TGGTTAAA | 0.139
GTGAATAA | 0.256
AGGACCCT | -0.181
CGTAAAAA | 0.333
AGACACAA | 0.101
ATGCTTTG | 0.0473
ATAATTAT | 0.326
ACCTTTCT | 0.00318
CTTGTGCC | -0.136
ATAAATGC | 0.0441

Sequence | PBM E-score
CCTCTACC | -0.298
ACAGAGGG | -0.238
ATCAACCG | 0.00155
CCCCAGGC | -0.404
ATTGTATC | 0.132
CTCACGGA | -0.13
ACACTGCC | -0.0648
ATTGGGAC | -0.0244
CCTTGCGC | -0.223
CCTACACG | 0.065
ACAGCAGA | -0.163
CCAAAGGG | -0.245
GGACATCC | -0.323
TTAATGAA | 0.185
GCTTCCCA | -0.117
CTATCAAC | 0.106
ATATCGAT | 0.0401
AAAGCTTC | -0.0511
CTATGCTA | 0.0609
ATGTTGAC | 0.261
GAGTCTAC | 0.00139
CAGGGGGA | -0.259

Sequence | PBM E-score
GTTTCTAA | 0.0384
CAGTGCAA | 0.0698
GGCGTTTA | 0.00604
GTTTACTA | 0.152
CAAATTTG | -0.0299
TACACCCA | -0.0332
ACCAGTCA | -0.0685
ATAAATTA | 0.292
GTTGACGA | 0.212
CACCATAC | -0.0714
CCAATCCC | -0.216
CAACTCTC | -0.163
AAGTTAAC | 0.161
CGTATGTC | 0.321
ACTATCTC | 0.123
ATCGTTAA | 0.159
CTATTTTA | 0.175
AGTGGTCC | -0.141
CCTGGTAC | -0.0662
GTAATGTA | 0.283

Reference: the supplement of paper PMC3334620
